Sequences and labels used below:
B1: glmS ribozyme (parent)
chain: AUAAAAGCGCCAGAACUACAGAAAUGUAGUUGACGAGGAGGAGGUUUAUCGAAUUUUCGGCGGAUGCCUCCAAA

± gives the standard error. This sample is rich in variants without activity.

Common to all, as to conditions: with glucosamine-6-phosphate
The variants in series [1] derive from B1. The experiment in a line: self-cleavage kobs at 40 uM GlcN6P; higher = faster cleavage; RNA array. Summed up:
(§1)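 Tracking of barcoded ribozyme variants used a hybridised Cy3 probe at 37 °C, after in situ transcription by E. coli RNA polymerase on sequenced MiSeq chips. The flowed solution held 40 μM to 10 mM glucosamine-6-phosphate in HEPES/KCl/Mg(OAc)2 buffer, and imaging ran over ~14 h. kobs was taken from exponential decay fits of normalised per-tile medians, and kcat and KM from weighted Michaelis–Menten fits.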

Variants of B1 are the subject of series [2]. The experiment in a line: self-cleavage kobs at 640 uM GlcN6P; higher = faster cleavage; RNA array. In a few lines:
as §1

Variants of B1 are the subject of series [3]. Put plainly: self-cleavage kobs at 160 uM GlcN6P; higher = faster cleavage; RNA array. Summed up: as §1
The variants in series [4] derive from B1. Put plainly: self-cleavage kobs at 2500 uM GlcN6P; higher = faster cleavage; RNA array. In a few lines: as §1
Variants of B1 are the subject of series [5]. Put plainly: self-cleavage kobs at 10000 uM GlcN6P; higher = faster cleavage; RNA array. In a few lines:
as §1

Consider G13A G43C, for which the “self-cleavage kobs at 40 uM GlcN6P” value with glucosamine-6-phosphate [1] was less than 1e-05 s⁻¹. Moreover, the “self-cleavage kobs at 640 uM GlcN6P” value with glucosamine-6-phosphate [2] is less than 1e-05 s⁻¹. Also, the “self-cleavage kobs at 160 uM GlcN6P” value in the series with glucosamine-6-phosphate [3] was less than 1e-05 s⁻¹.

In the case of C11A A14C A36G, in the series with glucosamine-6-phosphate [1], the “self-cleavage kobs at 40 uM GlcN6P” value was less than 1e-05 s⁻¹. Moreover, the “self-cleavage kobs at 640 uM GlcN6P” value in the series with glucosamine-6-phosphate [2] is less than 1e-05 s⁻¹. For the same variant, in the series with glucosamine-6-phosphate [3], the “self-cleavage kobs at 160 uM GlcN6P” value was less than 1e-05 s⁻¹. Besides, in the series with glucosamine-6-phosphate [4], the “self-cleavage kobs at 2500 uM GlcN6P” value was less than 1e-05 s⁻¹. Moreover, the “self-cleavage kobs at 10000 uM GlcN6P” value with glucosamine-6-phosphate [5] was less than 1e-05 s⁻¹.

On to G13U G44A, for which the “self-cleavage kobs at 40 uM GlcN6P” value with glucosamine-6-phosphate [1] was less than 1e-05 s⁻¹. Besides, in the series with glucosamine-6-phosphate [3], the “self-cleavage kobs at 160 uM GlcN6P” value is less than 1e-05 s⁻¹. In the series with glucosamine-6-phosphate [4], the “self-cleavage kobs at 2500 uM GlcN6P” value was less than 1e-05 s⁻¹.

As for A14U A36C G38C G51U U54G C71U, the “self-cleavage kobs at 40 uM GlcN6P” value with glucosamine-6-phosphate [1] is less than 1e-05 s⁻¹.

Take A12U G44C C68U: the “self-cleavage kobs at 40 uM GlcN6P” value with glucosamine-6-phosphate [1] was less than 1e-05 s⁻¹.

As for A15C G35U C50U, in the series with glucosamine-6-phosphate [1], the “self-cleavage kobs at 40 uM GlcN6P” value is less than 1e-05 s⁻¹. The “self-cleavage kobs at 2500 uM GlcN6P” value in the series with glucosamine-6-phosphate [4] was less than 1e-05 s⁻¹. In addition, in the series with glucosamine-6-phosphate [5], the “self-cleavage kobs at 10000 uM GlcN6P” value is less than 1e-05 s⁻¹.

Consider C11U A36C U45G, for which the “self-cleavage kobs at 40 uM GlcN6P” value with glucosamine-6-phosphate [1] is less than 1e-05 s⁻¹. In addition, the “self-cleavage kobs at 10000 uM GlcN6P” value in the series with glucosamine-6-phosphate [5] was less than 1e-05 s⁻¹.

On to C10U C50U U54A, for which the “self-cleavage kobs at 40 uM GlcN6P” value in the series with glucosamine-6-phosphate [1] is less than 1e-05 s⁻¹. The “self-cleavage kobs at 10000 uM GlcN6P” value with glucosamine-6-phosphate [5] was less than 1e-05 s⁻¹.

With C11G G37A, the “self-cleavage kobs at 40 uM GlcN6P” value with glucosamine-6-phosphate [1] is less than 1e-05 s⁻¹. For the same variant, the “self-cleavage kobs at 160 uM GlcN6P” value with glucosamine-6-phosphate [3] is less than 1e-05 s⁻¹. Further, the “self-cleavage kobs at 2500 uM GlcN6P” value with glucosamine-6-phosphate [4] is less than 1e-05 s⁻¹. The “self-cleavage kobs at 10000 uM GlcN6P” value with glucosamine-6-phosphate [5] is less than 1e-05 s⁻¹.

As to A12C G13U U47A U56A, the “self-cleavage kobs at 40 uM GlcN6P” value with glucosamine-6-phosphate [1] is less than 1e-05 s⁻¹.

A14U A53C: the “self-cleavage kobs at 40 uM GlcN6P” value with glucosamine-6-phosphate [1] was 3.59e-05 ± 9.1e-06 s⁻¹. The “self-cleavage kobs at 640 uM GlcN6P” value in the series with glucosamine-6-phosphate [2] was found to be 0.000309 ± 3.9e-05 s⁻¹. Moreover, the “self-cleavage kobs at 160 uM GlcN6P” value in the series with glucosamine-6-phosphate [3] was determined as 9.57e-05 ± 1.5e-05 s⁻¹. In addition, the “self-cleavage kobs at 2500 uM GlcN6P” value with glucosamine-6-phosphate [4] stood at 0.000834 ± 7.7e-05 s⁻¹. The “self-cleavage kobs at 10000 uM GlcN6P” value with glucosamine-6-phosphate [5] turned out to be 0.00105 ± 0.00014 s⁻¹.

In the case of C11U G38A G41A A42G, in the series with glucosamine-6-phosphate [1], the “self-cleavage kobs at 40 uM GlcN6P” value is less than 1e-05 s⁻¹. For the same variant, in the series with glucosamine-6-phosphate [3], the “self-cleavage kobs at 160 uM GlcN6P” value was less than 1e-05 s⁻¹.

For G13C A36C, in the series with glucosamine-6-phosphate [1], the “self-cleavage kobs at 40 uM GlcN6P” value was less than 1e-05 s⁻¹. In the series with glucosamine-6-phosphate [5], the “self-cleavage kobs at 10000 uM GlcN6P” value was less than 1e-05 s⁻¹.

Take A14C C70U: in the series with glucosamine-6-phosphate [1], the “self-cleavage kobs at 40 uM GlcN6P” value was 0.000159 ± 1.4e-05 s⁻¹. The “self-cleavage kobs at 640 uM GlcN6P” value with glucosamine-6-phosphate [2] stood at 0.000897 ± 9.5e-05 s⁻¹. Also, in the series with glucosamine-6-phosphate [3], the “self-cleavage kobs at 160 uM GlcN6P” value was 0.000308 ± 3.9e-05 s⁻¹. For the same variant, the “self-cleavage kobs at 2500 uM GlcN6P” value with glucosamine-6-phosphate [4] is 0.00439 ± 0.0007 s⁻¹. The “self-cleavage kobs at 10000 uM GlcN6P” value with glucosamine-6-phosphate [5] came to 0.00953 ± 0.0013 s⁻¹.

In the case of C11A U31C G51U, in the series with glucosamine-6-phosphate [1], the “self-cleavage kobs at 40 uM GlcN6P” value was less than 1e-05 s⁻¹.

For the variant A12G C61U C70U, the “self-cleavage kobs at 40 uM GlcN6P” value with glucosamine-6-phosphate [1] was less than 1e-05 s⁻¹.

As for G13C G32C U57G C70G, the “self-cleavage kobs at 40 uM GlcN6P” value in the series with glucosamine-6-phosphate [1] was found to be 7.16e-05 ± 2.4e-05 s⁻¹.

Regarding A15C A36G, the “self-cleavage kobs at 40 uM GlcN6P” value with glucosamine-6-phosphate [1] is less than 1e-05 s⁻¹. Besides, the “self-cleavage kobs at 640 uM GlcN6P” value in the series with glucosamine-6-phosphate [2] was less than 1e-05 s⁻¹. In addition, the “self-cleavage kobs at 160 uM GlcN6P” value in the series with glucosamine-6-phosphate [3] is less than 1e-05 s⁻¹. Besides, in the series with glucosamine-6-phosphate [4], the “self-cleavage kobs at 2500 uM GlcN6P” value is less than 1e-05 s⁻¹. Besides, the “self-cleavage kobs at 10000 uM GlcN6P” value with glucosamine-6-phosphate [5] was less than 1e-05 s⁻¹.

Consider A12G G43C, for which, in the series with glucosamine-6-phosphate [1], the “self-cleavage kobs at 40 uM GlcN6P” value was less than 1e-05 s⁻¹. In addition, the “self-cleavage kobs at 640 uM GlcN6P” value in the series with glucosamine-6-phosphate [2] was less than 1e-05 s⁻¹. Besides, in the series with glucosamine-6-phosphate [3], the “self-cleavage kobs at 160 uM GlcN6P” value is less than 1e-05 s⁻¹. For the same variant, the “self-cleavage kobs at 2500 uM GlcN6P” value in the series with glucosamine-6-phosphate [4] was less than 1e-05 s⁻¹. Also, the “self-cleavage kobs at 10000 uM GlcN6P” value in the series with glucosamine-6-phosphate [5] is less than 1e-05 s⁻¹.

With A14U G37U U45C, the “self-cleavage kobs at 40 uM GlcN6P” value with glucosamine-6-phosphate [1] is less than 1e-05 s⁻¹. Also, the “self-cleavage kobs at 160 uM GlcN6P” value with glucosamine-6-phosphate [3] was less than 1e-05 s⁻¹. Besides, the “self-cleavage kobs at 2500 uM GlcN6P” value in the series with glucosamine-6-phosphate [4] was less than 1e-05 s⁻¹. The “self-cleavage kobs at 10000 uM GlcN6P” value in the series with glucosamine-6-phosphate [5] is less than 1e-05 s⁻¹.

As to A12G A64U, the “self-cleavage kobs at 40 uM GlcN6P” value in the series with glucosamine-6-phosphate [1] is less than 1e-05 s⁻¹. The “self-cleavage kobs at 160 uM GlcN6P” value with glucosamine-6-phosphate [3] was less than 1e-05 s⁻¹.

For the variant A14U G37U U57A G60U, the “self-cleavage kobs at 40 uM GlcN6P” value with glucosamine-6-phosphate [1] is less than 1e-05 s⁻¹. Besides, the “self-cleavage kobs at 640 uM GlcN6P” value with glucosamine-6-phosphate [2] was less than 1e-05 s⁻¹. In the series with glucosamine-6-phosphate [4], the “self-cleavage kobs at 2500 uM GlcN6P” value was less than 1e-05 s⁻¹. Moreover, the “self-cleavage kobs at 10000 uM GlcN6P” value with glucosamine-6-phosphate [5] was less than 1e-05 s⁻¹.

Source of the values: the supplement of paper PMC7125110.
